Source: PubChem BioAssay AID624417 (National Center for Advancing Translational Sciences (NCATS), 2012)
About 6,400 (1.6%) of roughly 410,000 compounds were called active. Inconclusive results, whose numbers are uncertain, are shown with a selection of clear calls. The call rests on the fitted dose curve; in most records, active means well fitted inhibition curve with a large enough effect; inconclusive means small, poorly fitted or top-dose-only effect; inactive means no such curve, though single readings can be large or run the other way. No potency is given beside an inconclusive call; the fits are too rough.

Target: Glucagon-like peptide 1 receptor (Homo sapiens) (UniProt P43220)
Test: qHTS of GLP-1 Receptor Inverse Agonists (Inhibition Mode); further: nearly all actives have a fitted effect of over 55% in size
Settings: HEK293 GLP-1R CRE-luciferase, luminescence, 24 h; Potency: GLP-1R form is constitutively active unless noted; series mostly up to 38.3 µM
Outline: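 qHTS in 1536-well format: reporter HEK293 cells expressing constitutive GLP-1R activity in DMEM + 10% Nu serum, 24 hr with compounds at 37 deg C, luminescence read after 12 min with detection reagent.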
Potency means the concentration at half of the fitted maximal effect; tags describe the fitted curve by direction and shape.

Chain of UniProt P43220 (P43220 whole entry, looked up): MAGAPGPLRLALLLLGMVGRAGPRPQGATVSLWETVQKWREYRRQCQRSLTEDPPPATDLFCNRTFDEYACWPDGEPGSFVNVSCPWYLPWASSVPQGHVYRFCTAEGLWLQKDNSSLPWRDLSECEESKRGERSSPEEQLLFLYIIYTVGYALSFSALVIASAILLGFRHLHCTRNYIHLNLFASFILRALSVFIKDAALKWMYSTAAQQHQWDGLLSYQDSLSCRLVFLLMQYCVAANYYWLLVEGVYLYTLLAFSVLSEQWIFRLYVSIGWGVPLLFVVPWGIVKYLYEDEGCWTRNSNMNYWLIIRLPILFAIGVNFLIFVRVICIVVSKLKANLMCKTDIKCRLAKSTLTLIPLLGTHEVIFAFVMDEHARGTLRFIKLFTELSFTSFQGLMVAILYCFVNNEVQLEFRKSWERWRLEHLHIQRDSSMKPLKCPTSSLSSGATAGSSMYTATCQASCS

SMILES	Potency
COc1ccc(CN2CCCCC2c2cccnc2)cc1C (stereo not given)	inconclusive [inhibitor, partial curve, poor fit]
O=C1CN(O)C(c2ccccc2)=c2cc(Cl)ccc2=N1	inactive
Cc1cc(C)c(OCC(=O)N2CCN(c3ncc(C(F)(F)F)cc3Cl)CC2)c(C)c1	inconclusive [inhibitor, single point]
COc1cccc(Cn2c(=O)oc3ccccc32)c1	inconclusive [inhibitor, single point]
COC(=O)C1=C(c2ccc(-c3ccccc3)c(F)c2)C[C@@H]2CC[C@H]1N2C(=O)NCc1cccc2ccccc12	inconclusive [inhibitor, partial curve, poor fit]
NC(Cc1ccccc1)c1csc(Nc2ccccn2)n1 (stereo not given)	inconclusive [inhibitor, single point]
CCN1C[C@]2(COC(=O)c3ccccc3N)CC[C@H](OC)C34[C@@H]5C[C@H]6[C@H](OC)[C@@H]5[C@](O)(C[C@@H]6OC)[C@@](O)([C@H]13)[C@@H](OC)[C@@H]42	inactive
CC(C)c1ccc(CNC(=O)c2ccc(N3CCCC3)c(NC(=O)NCc3ccccc3)c2)cc1	inconclusive [inhibitor, single point]
CC(=O)c1ccc(-c2ccc(Cn3c(C)nc4cc(N)c(C)nc43)cc2)cc1	inactive
COc1ccc(C(=O)C2CN(C)CC2C(=O)c2ccc(OC)cc2)cc1 (stereo not given)	inconclusive [inhibitor, single point]
COC(=O)C1=C(c2ccccc2OCc2ccccc2)C[C@@H]2CC[C@H]1N2C(=O)NCc1cccc(F)c1	inconclusive [inhibitor, single point]
Nc1ccc(Br)cc1C(=O)c1ccccc1	inconclusive [inhibitor, single point]
Clc1ccccc1CN1CCN(c2ccccc2Cl)CC1	inconclusive [inhibitor, partial curve, poor fit]
CCOC(=O)c1c(C=O)c2ccccc2n1Cc1ccccc1F	inconclusive [inhibitor, partial curve, poor fit]
COc1ccc(NC(=O)c2cc([N+](=O)[O-])ccc2N2CCNCC2)cc1	inconclusive [inhibitor, single point]
CN1CC(C(=O)c2ccc(Cl)cc2)C(c2ccc(N(C)C)cc2)C1 (stereo not given)	inconclusive [inhibitor, partial curve, poor fit]
CCOC(=O)C1(CCc2ccccc2)CCN(Cc2ccc3c(c2)OCCO3)CC1	inconclusive [inhibitor, single point]
Cc1cccc(NC(=O)c2cccc(NS(=O)(=O)c3ccc(Cl)cc3)c2)c1	inconclusive [inhibitor, single point]
COC(=O)C1=C(c2ccccc2OCc2ccccc2)C[C@@H]2CC[C@H]1N2C(=O)NCc1ccc(C(F)(F)F)cc1	inconclusive [inhibitor, partial curve, poor fit]
CCC(CC)C1C(C#N)=C(N)Oc2c1c(=O)oc1ccccc21 (stereo not given)	inconclusive [inhibitor, full curve]

SMILES	Potency
CCOc1ccc(Br)c(C2(O)CC(C)N(C)CC2C)c1 (stereo not given)	inconclusive [inhibitor, partial curve, poor fit]
COc1cc2c3c(c1OC)Oc1ccc(cc1)C[C@H]1c4c(cc(OC)c(OC)c4Oc4ccc(cc4)C[C@@H]3N(C)CC2)CCN1C	inconclusive [inhibitor, full curve, poor fit]
CC1=CC(=Cc2sc3ccccc3[n+]2C)C=C(C)O1	inconclusive [inhibitor, full curve]
CCN(CC)CCNC(=O)c1nn(-c2ccc(C)cc2)c(=O)c2c1c1ccccc1n2C	inconclusive [inhibitor, full curve]
CCCCn1nnnc1C(c1cccs1)N1CCC2(CC1)C(=O)NCN2c1ccccc1 (stereo not given)	inconclusive [inhibitor, single point]
CCn1cc(C(=O)NCCc2ccc(OC)c(OC)c2)c(=O)c2cc(S(=O)(=O)N(C)C3CCCCC3)ccc21	inconclusive [inhibitor, single point]
CC(CC(C#N)(c1ccccc1)c1ccccc1)N1CCOCC1 (stereo not given)	inconclusive [inhibitor, partial curve, poor fit]
CCN(CC)C(=O)Oc1nnc(SC(C)C)n1-c1ccc(Cl)c(Cl)c1	inconclusive [inhibitor, partial curve, poor fit]
O=C(NN=Cc1ccc(N(CCCl)CCCl)cc1)C(=O)c1c[nH]c2ccccc12	active: 5.62 µM [setting not given]
C=C(C=O)C[C@@H]1C[C@H](O)C2OC3C[C@]4(C)OC5/C=C\CC6OC7C(CC=CCC6OC5CCCC4OC3CC2O1)OC1CC2OC3CC(=O)OC3C[C@@H](C)C[C@@]2(C)OC1C[C@@H]7C (stereo not given in full)	inconclusive [inhibitor, partial curve, poor fit]
O=C1NCN(c2ccccc2)C12CCN(C(c1cc3ccccc3o1)c1nnnn1C1CCCCC1)CC2 (stereo not given)	inconclusive [inhibitor, single point]
COc1c(C)cc(C(=O)C2CCCN(Cc3cccc(C)n3)C2)cc1C (stereo not given)	active: 8.91 µM
S=C(NCCc1ccccc1)N1Cc2cc(N3CCCCC3)ccc2-n2nncc2C1	inconclusive [inhibitor, single point]
Cc1ccc(NC(=O)CCSc2nnc(Cc3ccccc3)o2)cc1	inconclusive [inhibitor, single point]
O=Cc1cn(Cc2c(F)cccc2Cl)c2ccccc12	inconclusive [inhibitor, partial curve, poor fit]
Cc1ccc(NC(=O)N2CCN(c3cc(-c4noc(C)n4)ccc3C)CC2)c(F)c1	inconclusive [inhibitor, partial curve, poor fit]
CN(C)CC(C(=O)Cc1ccccc1)c1ccccc1 (stereo not given)	active: 5.01 µM [setting not given]
O=C1C2CCCN2C(c2cccs2)N1c1ccccn1 (stereo not given)	inactive
O=C(C(=O)N1CC=C(c2ccccc2)CC1)c1c[nH]c2ccccc12	inconclusive [inhibitor, partial curve, poor fit]
O=c1cccc2n1CC1CC2CN(c2ncnc3c2cnn3-c2ccc(Cl)cc2)C1 (stereo not given)	inconclusive [inhibitor, partial curve, poor fit]

SMILES	Potency
COc1cc(OC)cc(C(=O)NC(=S)N2C[C@H]3C[C@H](C2)c2cccc(=O)n2C3)c1	inactive
CC(C)c1cccc(O)c(=O)c1	inconclusive [inhibitor, full curve, poor fit]
Cc1ccccc1NC(=NCCCN1CC1)Nc1ccccc1C	inconclusive [inhibitor, partial curve, poor fit]
CCCC(c1nnnn1Cc1cccs1)N1CCN(c2nc3ccccc3s2)CC1 (stereo not given)	inconclusive [inhibitor, partial curve, poor fit]
CN1CCCC(C(O)(c2ccccc2)c2ccccc2)C1 (stereo not given)	inconclusive [inhibitor, single point]
ClCCN(CCCl)c1ccc(C=Cc2ccncn2)cc1	inconclusive [inhibitor, partial curve, poor fit]
CN1CCN(c2ccc([N+](=O)[O-])c(N/N=C3\CN4CCC3CC4)c2)CC1	inconclusive [inhibitor, single point]
O=[N+]([O-])c1ccc(CN2CC=C(c3ccccc3)CC2)cc1	inactive
O=C(Oc1ccc2ccccc2c1Cl)N1CCCC1	inconclusive [inhibitor, single point]
COc1ccc(CC(N)c2csc(NC(=O)Nc3ccccc3Oc3ccccc3)n2)cc1 (stereo not given)	inconclusive [inhibitor, single point]
Cc1sc2c(c1C)C(c1ccc(C(C)(C)C)cc1)=NCC(=O)N2CC(=O)Nc1nccs1	inconclusive [inhibitor, partial curve, poor fit]
O=Nc1c(O)c2ccccc2c2ccccc12	inconclusive [inhibitor, single point]
O=C(Oc1ccc(Br)cc1C(=S)N1CCCC1)c1ccccc1Cl	inconclusive [inhibitor, partial curve, poor fit]
CCOC(=O)c1cc(C)sc1/N=C/C1C(=O)NC(=S)NC1=O	inactive
O=C(c1ccc2c(c1)N(Cc1ccc(F)cc1)CCS2)N1CCC2(CC1)OCCO2	inconclusive [inhibitor, single point]
COC(=O)C1(C(=O)OC)C[C@H](c2ccc(OC)cc2)N(Cc2ccccc2OC)[C@@H]1c1cccs1	active: 10 µM
Cc1cccc(OCC(=O)N2CCN(Cc3ccc([N+](=O)[O-])cc3)CC2)c1	inconclusive [inhibitor, partial curve]
O=C(CCn1c(=O)oc2ccccc21)N1CCN(c2ccccc2Cl)CC1	inconclusive [inhibitor, partial curve, poor fit]
Cc1cccc(-n2c(/C=C/c3ccccn3)nc3ccccc3c2=O)c1	inactive
Clc1ccc(NC2=NCCCS2)cc1Cl	inconclusive [inhibitor, single point]
